Here are results for 110 sequences from the supplement of paper PMC3334620.

Over roughly 33,000 sequences, “E-score (-0.5 to 0.5)” has its median near -0.053; the highest 2% begin near 0.37. This is one part of the list.

The target of this assay is Hap1 (UniProt P0CE41). Briefly: PBM E-score (8-mer binding enrichment) (E-score (-0.5 to 0.5)); higher = stronger / more preferred TF binding; most listed sequences are background and not binding sites. The note with it: protein concentration: 200 nM; construct: GST-DNA-binding domain. As to the method: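 Universal 'all 10-mer' protein binding microarrays (Agilent AMADID 015681) probed with GST-tagged S. cerevisiae TFs (full-length or DBD) made by in vitro transcription/translation (PURExpress), about 100-200 nM. Bound TF was detected with fluorescent anti-GST. Each ungapped 8-mer (which stands for itself and its reverse complement) is scored by the PBM enrichment score (E-score), a modified Wilcoxon-Mann-Whitney statistic from -0.5 to +0.5, computed with the Universal PBM Analysis Suite. Scale: above 0.35 generally sequence-specific binding.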
UniProt P0CE41, sequence (P0CE41 whole entry, the tested form may be a part): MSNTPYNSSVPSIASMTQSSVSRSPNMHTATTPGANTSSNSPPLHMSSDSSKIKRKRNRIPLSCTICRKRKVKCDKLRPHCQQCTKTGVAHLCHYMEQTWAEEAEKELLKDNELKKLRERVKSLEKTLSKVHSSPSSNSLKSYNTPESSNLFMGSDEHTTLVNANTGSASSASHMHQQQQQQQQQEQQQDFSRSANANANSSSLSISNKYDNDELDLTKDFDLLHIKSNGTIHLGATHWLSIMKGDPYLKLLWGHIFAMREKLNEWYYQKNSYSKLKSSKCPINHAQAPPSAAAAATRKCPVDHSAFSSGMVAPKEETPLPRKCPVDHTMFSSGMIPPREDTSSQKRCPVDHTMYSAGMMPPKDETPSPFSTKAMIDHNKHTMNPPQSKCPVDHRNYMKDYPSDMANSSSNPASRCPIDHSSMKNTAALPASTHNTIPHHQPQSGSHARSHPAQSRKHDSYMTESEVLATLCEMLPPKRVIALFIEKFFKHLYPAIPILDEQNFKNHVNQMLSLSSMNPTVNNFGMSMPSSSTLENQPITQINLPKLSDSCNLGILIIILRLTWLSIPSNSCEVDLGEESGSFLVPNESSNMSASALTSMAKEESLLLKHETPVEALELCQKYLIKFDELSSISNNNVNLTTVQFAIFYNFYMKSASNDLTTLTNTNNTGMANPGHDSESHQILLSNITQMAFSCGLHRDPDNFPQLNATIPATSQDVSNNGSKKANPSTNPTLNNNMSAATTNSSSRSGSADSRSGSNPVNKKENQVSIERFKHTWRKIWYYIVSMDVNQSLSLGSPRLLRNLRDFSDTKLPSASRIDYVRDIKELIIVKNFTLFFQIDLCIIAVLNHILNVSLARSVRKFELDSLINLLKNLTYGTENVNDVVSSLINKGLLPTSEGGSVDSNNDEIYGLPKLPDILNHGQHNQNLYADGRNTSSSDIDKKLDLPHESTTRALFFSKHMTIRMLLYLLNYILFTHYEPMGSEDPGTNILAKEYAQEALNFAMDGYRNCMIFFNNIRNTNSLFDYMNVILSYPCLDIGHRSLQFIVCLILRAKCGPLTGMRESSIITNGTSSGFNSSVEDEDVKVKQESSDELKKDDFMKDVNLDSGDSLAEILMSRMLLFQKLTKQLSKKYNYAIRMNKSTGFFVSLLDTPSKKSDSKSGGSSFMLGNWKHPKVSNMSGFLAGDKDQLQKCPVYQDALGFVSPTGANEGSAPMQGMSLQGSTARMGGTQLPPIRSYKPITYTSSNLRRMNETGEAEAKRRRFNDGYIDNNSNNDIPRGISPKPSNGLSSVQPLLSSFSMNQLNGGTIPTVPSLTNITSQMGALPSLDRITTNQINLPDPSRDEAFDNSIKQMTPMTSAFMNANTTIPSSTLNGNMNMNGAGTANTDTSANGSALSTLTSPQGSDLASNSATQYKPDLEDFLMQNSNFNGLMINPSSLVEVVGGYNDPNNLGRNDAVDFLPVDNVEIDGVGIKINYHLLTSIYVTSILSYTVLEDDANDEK
Consider AGTCTAAG, for which the “PBM E-score” value is 0.0623.

As to AGTACATA, the “PBM E-score” value was -0.0856.

In the case of GCAGTTCC, the “PBM E-score” value amounted to 0.00727.

ATTCTCAA: the “PBM E-score” value is -0.157.

Consider GAGAGACA, for which the “PBM E-score” value was -0.0896.

For CGTAATCC, the “PBM E-score” value was 0.213.

For the sequence ACTGTACC, the “PBM E-score” value stood at 0.0504.

As to AGCCGCAG, the “PBM E-score” value was -0.0372.

On to AGATAAGG, for which the “PBM E-score” value is 0.0689.

Consider AGGTATAT, for which the “PBM E-score” value is -0.261.

On to ACAAGCCT, for which the “PBM E-score” value was -0.166.

Take GGTAGCTA: the “PBM E-score” value is -0.194.

TAGTGACA: the “PBM E-score” value is -0.128.

For the sequence GTCTGCAA, the “PBM E-score” value was -0.184.

Regarding AGGGGATC, the “PBM E-score” value is -0.182.

For the sequence ATTGTCAG, the “PBM E-score” value was -0.199.

Regarding AGCGACCC, the “PBM E-score” value stood at 0.142.

As for CGGAGGCC, the “PBM E-score” value was 0.219.

On to CACTGGCA, for which the “PBM E-score” value is -0.198.

In the case of TCATACAA, the “PBM E-score” value came to 0.0241.

CCAGCTCG: the “PBM E-score” value is 0.0135.

For the sequence ATATTCTG, the “PBM E-score” value is 0.04.

In the case of CTATTGAA, the “PBM E-score” value is -0.0758.

For the sequence AATACGTC, the “PBM E-score” value came to 0.135.

For CTTACGCA, the “PBM E-score” value is -0.171.

As for CTAAGGTA, the “PBM E-score” value is -0.0508.

As for ACTTGTCC, the “PBM E-score” value is 0.152.

ATTACATC: the “PBM E-score” value came to 0.0813.

For ATTAGCGA, the “PBM E-score” value amounted to 0.128.

In the case of TTAAGTAA, the “PBM E-score” value is -0.00225.

For the sequence CTAAGGAC, the “PBM E-score” value was -0.218.

In the case of ATTTATGC, the “PBM E-score” value was -0.066.

Turning to GACAAAAC, the “PBM E-score” value turned out to be 0.0411.

For ACGCTTAG, the “PBM E-score” value was -0.177.

For AATCGTCT, the “PBM E-score” value was -0.193.

Turning to AGACTACA, the “PBM E-score” value is -0.204.

With CAGGTTCG, the “PBM E-score” value is -0.0124.

Consider AGTGTATG, for which the “PBM E-score” value came to 0.0704.

On to AGGCGTCA, for which the “PBM E-score” value was -0.19.

As for AAGCATTC, the “PBM E-score” value was -0.0448.

For ATTCCGAG, the “PBM E-score” value was 0.397.

CGGGGACC: the “PBM E-score” value came out at 0.255.

Turning to ACAGGTGC, the “PBM E-score” value is -0.0571.

Regarding AGTGCCAG, the “PBM E-score” value was -0.013.

Take ACGGGCGA: the “PBM E-score” value is 0.333.

For the sequence ACGTAGTA, the “PBM E-score” value was -0.0894.

On to ACTGATGG, for which the “PBM E-score” value was -0.192.

For CAACAGCC, the “PBM E-score” value is -0.0502.

Consider CCGGTACA, for which the “PBM E-score” value worked out at 0.367.

In the case of CACGAAGA, the “PBM E-score” value was -0.276.

Turning to ATGTCATC, the “PBM E-score” value was -0.0583.

With ACACGCTC, the “PBM E-score” value is -0.0124.

For GGGGCGCA, the “PBM E-score” value was -0.255.

For the sequence ACATTGAA, the “PBM E-score” value was -0.105.

As for ATCTAGCC, the “PBM E-score” value was determined as 0.00196.

For CAGACTCG, the “PBM E-score” value was -0.241.

For the sequence ACCTCAGC, the “PBM E-score” value is -0.1.

With CTTGCCGA, the “PBM E-score” value came to 0.0417.

ATAACCTA: the “PBM E-score” value is -0.219.

For CCGCACCG, the “PBM E-score” value worked out at 0.305.

For ATTAGCTC, the “PBM E-score” value is 0.0644.

AGGGCATG: the “PBM E-score” value is -0.105.

Take AGCCTACA: the “PBM E-score” value was -0.226.

With ACCGTGAA, the “PBM E-score” value was 0.126.

For GGGCCTGA, the “PBM E-score” value was -0.117.

Consider CACTCGCC, for which the “PBM E-score” value worked out at 0.128.

GACGAATA: the “PBM E-score” value was found to be 0.102.

For CGTACAGA, the “PBM E-score” value is -0.185.

Regarding ATCTTCAA, the “PBM E-score” value is -0.235.

For the sequence AATATGAG, the “PBM E-score” value was -0.138.

With AAGGAATG, the “PBM E-score” value is -0.155.

Regarding AAATTATT, the “PBM E-score” value was 0.0461.

Regarding CCCGAATA, the “PBM E-score” value was 0.331.

AAGTAGAC: the “PBM E-score” value was -0.0772.

For the sequence ACACAGGG, the “PBM E-score” value was -0.139.

With GGGCTTGA, the “PBM E-score” value was -0.292.

Consider CCAATTGC, for which the “PBM E-score” value is -0.107.

In the case of TGCTGTAA, the “PBM E-score” value was -0.0487.

With CATGGCAA, the “PBM E-score” value was -0.211.

For the sequence AACCTGAA, the “PBM E-score” value is -0.254.

For GCCGAACA, the “PBM E-score” value was determined as 0.233.

As to TTCAACAA, the “PBM E-score” value was -0.0945.

With CCAACTAG, the “PBM E-score” value was -0.272.

As for ACCTTGCT, the “PBM E-score” value was -0.142.

Turning to ATATGGAT, the “PBM E-score” value was -0.174.

On to TAGCGGAA, for which the “PBM E-score” value turned out to be 0.298.

For the sequence ATCCACTG, the “PBM E-score” value is -0.041.

Take ACAGCTAG: the “PBM E-score” value is -0.142.

Turning to CGGCACGC, the “PBM E-score” value was determined as 0.161.

As for GGGGATCA, the “PBM E-score” value was found to be 0.0146.

On to CTGTCTTC, for which the “PBM E-score” value is -0.0708.

Take CAAAGCAC: the “PBM E-score” value was -0.138.

Regarding ACTTCGGG, the “PBM E-score” value was 0.247.

Regarding AAAGTCCC, the “PBM E-score” value is 0.0658.

With GATAGAGC, the “PBM E-score” value was 0.132.

AAAGTTCA: the “PBM E-score” value is 0.00735.

As for ACTTTACG, the “PBM E-score” value is -0.0973.

In the case of TGCCAAAA, the “PBM E-score” value is -0.143.

On to CGTGGGAA, for which the “PBM E-score” value is -0.241.

Regarding GTATTAAC, the “PBM E-score” value was determined as 0.218.

AGCAGATA: the “PBM E-score” value was 0.00637.

Consider CTTGCATA, for which the “PBM E-score” value is -0.0856.

Regarding GACTCAAC, the “PBM E-score” value came to 0.0012.

Consider ATTTTGAA, for which the “PBM E-score” value was -0.0564.

Take ATTTACGG: the “PBM E-score” value worked out at 0.238.

With GATACAAC, the “PBM E-score” value worked out at 0.215.

On to TGCATGAA, for which the “PBM E-score” value was -0.158.

On to CCACTAAC, for which the “PBM E-score” value is -0.171.

For the sequence CACCGTCG, the “PBM E-score” value is 0.202.

Turning to ATTTAGCC, the “PBM E-score” value stood at 0.143.
